{"source": "paper PMC10668032", "note": "Some of the results follow. At the low end of the ranking the order means little."}
{"biological_target": "SIX1 homeodomain (reference allele) (UniProt Q15475)", "test": "universal protein binding microarray", "conditions": "Universal all-10-mer PBM (8x60K, AMADID 030236), 300 nM GST-tagged protein, Alexa Fluor 488 anti-GST; buffer, salt, pH and temperature not stated; high values mean tight binding; most listed sequences are background and not binding sites; double strand, one strand shown", "units": {"binding signal": "E-score"}}
{"sequence": "CTGACGCA", "binding signal": -0.254}
{"sequence": "GTGAGACA", "binding signal": 0.158}
{"sequence": "GGCTTAGA", "binding signal": -0.149}
{"sequence": "TCCAGGAA", "binding signal": 0.011}
{"sequence": "GCTATTTA", "binding signal": 0.0705}
{"sequence": "ACTAGGGC", "binding signal": -0.192}
{"sequence": "GACGGGCC", "binding signal": -0.0352}
{"sequence": "CGGGAAAA", "binding signal": -0.218}
{"sequence": "CATATCAA", "binding signal": 0.452}
{"sequence": "AATTTCAC", "binding signal": -0.295}
{"sequence": "CGTGGTCC", "binding signal": 0.0814}
{"sequence": "GATACGCA", "binding signal": 0.421}
{"sequence": "ACGCAGCC", "binding signal": -0.136}
{"sequence": "AACGAGGC", "binding signal": -0.111}
{"sequence": "GCTTGTAC", "binding signal": -0.101}
{"sequence": "ATCGGCTG", "binding signal": 0.167}
{"sequence": "CAGTAGCG", "binding signal": -0.0242}
{"sequence": "ATCGTGGA", "binding signal": 0.116}
{"sequence": "GAGGCATC", "binding signal": 0.00106}
{"sequence": "ATGCGAGG", "binding signal": -0.0248}
{"sequence": "GGATGGAA", "binding signal": 0.0567}
{"sequence": "AATCACAG", "binding signal": -0.0314}
{"sequence": "GGATACCA", "binding signal": 0.426}
{"sequence": "AAACTCGT", "binding signal": -0.263}
{"sequence": "AAGCAGCC", "binding signal": -0.224}
{"sequence": "CGGTACTC", "binding signal": 0.176}
{"sequence": "TTAGTGAA", "binding signal": -0.0467}
{"sequence": "CAAGCGCG", "binding signal": -0.145}
{"sequence": "GCGACTTA", "binding signal": -0.274}
{"sequence": "ATAGGGAT", "binding signal": 0.395}
{"sequence": "CAGCCCGA", "binding signal": -0.118}
{"sequence": "ACGGGATC", "binding signal": 0.342}
{"sequence": "GCTCTTTA", "binding signal": -0.174}
{"sequence": "ACGACAAC", "binding signal": -0.148}
{"sequence": "AGACGTGC", "binding signal": -0.075}
{"sequence": "TGATGGCA", "binding signal": -0.255}
{"sequence": "CTGCCAGA", "binding signal": 0.0078}
{"sequence": "CTGTGGGA", "binding signal": -0.0232}
{"sequence": "ATTTCACG", "binding signal": -0.103}
{"sequence": "GCCCTACA", "binding signal": -0.126}
{"sequence": "AGGTCTTG", "binding signal": -0.198}
{"sequence": "CACATGGG", "binding signal": -0.111}
{"sequence": "AAATGCTA", "binding signal": 0.114}
{"sequence": "AAAAGCGA", "binding signal": -0.0436}
{"sequence": "TCGAAAGA", "binding signal": -0.0936}
{"sequence": "ACCCAGAC", "binding signal": 0.117}
{"sequence": "CTGAGCCA", "binding signal": -0.00654}
{"sequence": "CCTCTGGA", "binding signal": -0.00647}
{"sequence": "AAACATGT", "binding signal": -0.276}
{"sequence": "ACGAGTCT", "binding signal": -0.0531}
{"sequence": "CAGAACGA", "binding signal": 0.0772}
{"sequence": "GTGCCGCA", "binding signal": -0.174}
{"sequence": "AGCAAGCA", "binding signal": -0.304}
{"sequence": "ATTACTGC", "binding signal": 0.0655}
{"sequence": "GAACCTAC", "binding signal": -0.192}
{"sequence": "AAGCTTCC", "binding signal": -0.196}
{"sequence": "AGCAGGCA", "binding signal": -0.122}
{"sequence": "AGGACTGG", "binding signal": -0.12}
{"sequence": "AGCTACAC", "binding signal": 0.0973}
{"sequence": "ACTCAACA", "binding signal": -0.133}
{"sequence": "ACCAATAT", "binding signal": 0.199}
{"sequence": "CCTACTAC", "binding signal": 0.0198}
{"sequence": "ATTATGCA", "binding signal": 0.0315}
{"sequence": "CATCGGGC", "binding signal": 0.0787}
{"sequence": "CGGAGTTC", "binding signal": -0.0974}
{"sequence": "AGAGTCTA", "binding signal": -0.192}
{"sequence": "ACCTTGAC", "binding signal": -0.0392}
{"sequence": "ACCGGGTG", "binding signal": 0.109}
{"sequence": "AGAGCATC", "binding signal": 0.0182}
{"sequence": "ACAACGCC", "binding signal": -0.225}
{"sequence": "AAAGGCGG", "binding signal": -0.16}
{"sequence": "AGCTGTCC", "binding signal": -0.383}
{"sequence": "GCCTCCAC", "binding signal": -0.379}
{"sequence": "GAGAAACC", "binding signal": -0.0361}
{"sequence": "ACGGAGAA", "binding signal": -0.0771}
{"sequence": "CCCCTCAC", "binding signal": 0.00562}
{"sequence": "ATTTCTTC", "binding signal": -0.171}
{"sequence": "GCAGTATA", "binding signal": 0.205}
{"sequence": "CAGACAGG", "binding signal": -0.0912}
{"sequence": "CATGGAGC", "binding signal": -0.283}
{"sequence": "AGCCATGG", "binding signal": 0.0179}
{"sequence": "CTCACCCC", "binding signal": 0.0156}
{"sequence": "ATGAGTCA", "binding signal": 0.00105}
{"sequence": "ACGGTCCT", "binding signal": -0.266}
{"sequence": "AGCACAAT", "binding signal": -0.0533}
{"sequence": "ACAGAGGG", "binding signal": 0.0677}
{"sequence": "CACGGTAG", "binding signal": 0.0356}
{"sequence": "ATCCCACA", "binding signal": 0.23}
{"sequence": "CAGACCCG", "binding signal": -0.0239}
{"sequence": "TCGGACGA", "binding signal": -0.0313}
{"sequence": "GATGGCCA", "binding signal": -0.297}
{"sequence": "AGGGACTG", "binding signal": -0.204}
{"sequence": "AGCGACCG", "binding signal": 0.00574}
{"sequence": "GAACCCCC", "binding signal": -0.0838}
{"sequence": "ACTCGGCG", "binding signal": 0.0111}
{"sequence": "GTCGCCCA", "binding signal": -0.227}
{"sequence": "CAGTGTCC", "binding signal": -0.0519}
{"sequence": "ATAGGTTG", "binding signal": -0.105}
{"sequence": "TCGGTAAA", "binding signal": -0.0484}
{"sequence": "CCACGGTA", "binding signal": 0.0502}
{"sequence": "CAACCTAC", "binding signal": -0.0687}
{"sequence": "GCTGCGGA", "binding signal": "3.5e-05"}
{"sequence": "AGGACGCG", "binding signal": -0.0249}
{"sequence": "TACTTACA", "binding signal": -0.0544}
{"sequence": "AGTTTGAT", "binding signal": 0.0308}
{"sequence": "GCAAGATA", "binding signal": 0.17}
{"sequence": "TCTGAAAA", "binding signal": -0.024}
{"sequence": "GCCGGCGC", "binding signal": -0.195}
{"sequence": "CACAGTGA", "binding signal": -0.0378}
{"sequence": "AGAACGCG", "binding signal": -0.185}
{"sequence": "CAGCTGAC", "binding signal": -0.194}
{"sequence": "TATTCGGA", "binding signal": 0.0335}
{"sequence": "GCCTGGTA", "binding signal": 0.0811}
{"sequence": "AAACGTCC", "binding signal": -0.334}
{"sequence": "ATGGCGGA", "binding signal": 0.104}
{"sequence": "AATGGTGT", "binding signal": 0.287}
{"sequence": "AGATCTAC", "binding signal": 0.183}
{"sequence": "ACTTGGTG", "binding signal": 0.0751}
{"sequence": "CTCGGTCA", "binding signal": -0.0232}
{"sequence": "GGGCCCCC", "binding signal": -0.31}
{"sequence": "TACCCGCA", "binding signal": 0.161}
{"sequence": "AGGGCGCA", "binding signal": -0.29}
{"sequence": "ACCGTTAC", "binding signal": -0.0724}
{"sequence": "AAACGCAT", "binding signal": -0.122}
{"sequence": "AAACGGGG", "binding signal": -0.0435}
{"sequence": "AAACTGTT", "binding signal": -0.232}
{"sequence": "GCGTAGAC", "binding signal": -0.0743}
{"sequence": "CAGGAATA", "binding signal": -0.0839}
{"sequence": "AACGTTAC", "binding signal": -0.19}
{"sequence": "ACTTTGAC", "binding signal": -0.201}
{"sequence": "CTGATTCC", "binding signal": -0.1}
{"sequence": "ACCGGTCA", "binding signal": 0.069}
{"sequence": "GAATCGCC", "binding signal": -0.0722}
{"sequence": "CCGATTCA", "binding signal": -0.0745}
{"sequence": "CTCCTAAA", "binding signal": -0.0767}
{"sequence": "CCACATCC", "binding signal": 0.142}
{"sequence": "GATGCTGA", "binding signal": -0.0596}
{"sequence": "ACCTTTCC", "binding signal": -0.114}
{"sequence": "GCTGGCGA", "binding signal": -0.0132}
{"sequence": "ATATAGCG", "binding signal": 0.164}
{"sequence": "ATATTATA", "binding signal": 0.333}
{"sequence": "ACGAGACA", "binding signal": 0.0509}
{"sequence": "TGAGAGCA", "binding signal": 0.00541}
{"sequence": "ACTACTGG", "binding signal": -0.105}
{"sequence": "CACTGGAA", "binding signal": 0.0659}
{"sequence": "CCACTATA", "binding signal": 0.143}
{"sequence": "CGGGGGTA", "binding signal": 0.301}
{"sequence": "AGCATCGC", "binding signal": -0.2}
{"sequence": "AGGAGTTA", "binding signal": -0.0945}
{"sequence": "CAGGTAGC", "binding signal": 0.0424}
{"sequence": "GAAACGAA", "binding signal": -0.164}
{"sequence": "ACGCCGCC", "binding signal": -0.153}
{"sequence": "GAGGAGCC", "binding signal": 0.0159}
{"sequence": "CCTAATCC", "binding signal": 0.121}
{"sequence": "GACAAGTC", "binding signal": -0.344}
{"sequence": "GTCGACTA", "binding signal": 0.0583}
{"sequence": "ACGTCAGA", "binding signal": -0.114}
{"sequence": "ATTGGCTG", "binding signal": -0.204}
{"sequence": "GATGTCAA", "binding signal": -0.111}
{"sequence": "ATAGTCCC", "binding signal": 0.0289}
{"sequence": "CACAACGG", "binding signal": -0.0757}
{"sequence": "GCCTATCC", "binding signal": 0.267}
{"sequence": "GAAGTTAA", "binding signal": -0.162}
{"sequence": "ACTCAAAG", "binding signal": -0.191}
{"sequence": "CAAACGTA", "binding signal": -0.00932}
{"sequence": "AGCCTCAT", "binding signal": -0.0751}
{"sequence": "CAATCAAA", "binding signal": -0.199}
{"sequence": "GTCAAGTA", "binding signal": -0.134}
{"sequence": "GCAATCGC", "binding signal": -0.145}
{"sequence": "ACTCTATA", "binding signal": 0.117}
{"sequence": "ACTCAATG", "binding signal": 0.109}
{"sequence": "AACTCTAA", "binding signal": -0.00439}
